# According to PubChem BioAssay AID1347043 (National Center for Advancing Translational Sciences (NCATS), 2019):
# Screen size: about 76,000 compounds; about 1,900 (2.5%) were called active. Inconclusive means that the source gave no clear call. Such entries were picked first, then a sample of the others. The call rests on the fitted dose curve; in most records, active means well fitted inhibition curve with a large enough effect; inconclusive means small, poorly fitted or top-dose-only effect; inactive means flat fitted curve, though single readings scatter. A potency beside an inconclusive call is a rough fit, not a confirmed value.
# Molecular target: Luciferin 4-monooxygenase (Photinus pyralis) (UniProt P08659)
# Sequence of UniProt P08659 (P08659 whole entry, looked up): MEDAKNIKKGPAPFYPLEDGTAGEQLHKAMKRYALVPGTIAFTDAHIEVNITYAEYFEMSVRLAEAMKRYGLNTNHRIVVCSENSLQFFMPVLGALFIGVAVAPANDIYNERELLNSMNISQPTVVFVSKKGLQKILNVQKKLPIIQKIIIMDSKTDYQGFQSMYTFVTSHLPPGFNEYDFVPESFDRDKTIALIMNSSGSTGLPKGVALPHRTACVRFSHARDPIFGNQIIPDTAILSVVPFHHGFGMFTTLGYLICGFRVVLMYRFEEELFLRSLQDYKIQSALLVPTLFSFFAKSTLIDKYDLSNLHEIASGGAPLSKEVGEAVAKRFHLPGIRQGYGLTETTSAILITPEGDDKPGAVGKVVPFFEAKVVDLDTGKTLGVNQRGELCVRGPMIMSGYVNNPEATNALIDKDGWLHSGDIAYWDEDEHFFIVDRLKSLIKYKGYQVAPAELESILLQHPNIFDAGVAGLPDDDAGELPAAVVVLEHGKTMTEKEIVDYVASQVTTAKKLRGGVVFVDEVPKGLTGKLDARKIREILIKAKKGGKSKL
# Assay: Firefly luciferase inhibition profiling of diverse chemical library using quantitative high-throughput screening; further: nearly all actives have a fitted effect of over 65% in size
# Settings: purified P. pyralis luciferase, luminescence, biochemical; series mostly up to 115 µM
# Method in brief: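 Luminescence read by CCD imager after adding enzyme (10nM final) to wells holding compound, titrated in qHTS. Substrates 10uM each D-luciferin and ATP; buffer 50mM Tris acetate pH 7.5, 10mM Mg acetate, Tween-20, BSA.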
# Potency means the concentration at half of the fitted maximal effect; tags describe the fitted curve by direction and shape.
row,SMILES,Potency
1,Cc1ccc(-c2noc([C@@H]3Cc4nc[nH]c4CN3C(=O)COCC(=O)O)n2)cc1,"inconclusive: 70.8 µM [inhibitor, partial curve]"
2,Cc1ccc2c(C(=O)N3CCCC(C#N)C3)cc(-c3cnn(C(C)C)c3)nc2c1 (centres undefined),"inconclusive: 50.1 µM [inhibitor, partial curve]"
3,CS(=O)(=O)CCN1CCN(C(=O)c2cccc(-c3ncc[nH]3)c2)CC1,inactive
4,Cc1nn(-c2ccc(F)cc2)c(Oc2ccccc2)c1CCC(=O)NCC1CC1,inactive
5,Cc1ccc(NC(=O)N2Cc3[nH]cnc3C[C@H]2c2nc(C(C)C)no2)cc1,"inconclusive: 56.2 µM [inhibitor, partial curve]"
6,Cc1ccc(-c2[nH]ncc2CN2C[C@@H](CO)[C@H](c3ccccn3)C2)cc1,inactive
7,Cc1ccc(-c2cc(N3CCCN(C(=O)Cc4ccccc4Cl)CC3)n[nH]2)cc1C,"inconclusive: 50.1 µM [inhibitor, partial curve]"
8,O=C(NC1CCCN(c2cc(-c3ccc(F)cc3)[nH]n2)C1)c1cnccn1 (centres undefined),"inconclusive: 50.1 µM [inhibitor, partial curve]"
9,CC1CCC2(CC1)NC(=O)N(CC(=O)N1CCCc3ccccc31)C2=O (centres undefined),inactive
10,Cc1ccc(Cn2ccn3nc(-c4ccccc4)c(CO)c3c2=O)cc1,"inconclusive: 39.8 µM [inhibitor, partial curve, poor fit]"
11,CCNC[C@H]1O[C@H](Cc2cc(-c3ccc(F)cc3)on2)CC[C@@H]1O,"inconclusive: 126 µM [inhibitor, single point]"
12,O=C(c1cn2ccsc2n1)N1CCC2(CCNCC2)CC1,inactive
13,COc1cccc(C(O)c2nc(C(=O)Nc3ccc4c(c3)OCC(=O)N4)c(C)o2)c1 (centres undefined),"inconclusive: 7.94 µM [inhibitor, full curve]"
14,CCOc1ccc(NC(=O)c2cc3n(n2)CC(c2ccc4c(c2)OCO4)OC3)cc1 (centres undefined),"inconclusive: 25.1 µM [inhibitor, partial curve, poor fit]"
15,CN1c2cc(C(=O)Nc3cc(F)ccc3F)ccc2C(=O)N2CCCCCC21 (centres undefined),active: 11.2 µM
16,CN(C)C[C@@H]1CN(Cc2ccccn2)C[C@H]1NS(=O)(=O)c1cccc(F)c1,inactive
17,Cc1cccc(CC(=O)N2CCC3(CC2)CCC(O)(CN(C)C)CC3)c1,"inconclusive: 44.7 µM [inhibitor, partial curve, poor fit]"
18,CCOc1ccc(NC(=O)Cn2c(=O)n(-c3ccccc3)c(=O)c3c2cc(C)n3C)cc1,inactive
19,CCOC(=O)c1ccc(NC(=O)N2Cc3[nH]cnc3C[C@H]2c2nc(-c3cccc(C)c3)no2)cc1,"inconclusive: 44.7 µM [inhibitor, partial curve]"
20,Cc1ccc(NC(=O)CC2CCOCC2)cc1C,"inconclusive: 56.2 µM [inhibitor, partial curve]"
21,Cc1ccc(C(=O)N2CCN(C(=O)c3nnn4c3COC(c3ccc(Cl)cc3)C4)CC2)cc1F (centres undefined),inactive
22,Cc1nn(-c2ccccn2)c(C)c1[C@@H]1C=C[C@@H](NC(=O)NC(C)C)C1,"inconclusive: 79.4 µM [inhibitor, partial curve]"
23,Cc1cccc(-c2noc([C@@H]3Cc4nc[nH]c4CN3C(=O)C3CCCCC3)n2)c1,active: 56.2 µM

row,SMILES,Potency
1,O=C([C@@H]1C[C@H](F)CN1C(=O)Nc1cccc(Br)c1)N1CCCCC1,"inconclusive: 56.2 µM [inhibitor, partial curve]"
2,O=C1NC(=NC2CCCCC2)C2(CCCN([S+](=O)([O-])c3cccc(C(F)(F)F)c3)C2)N1c1cccnc1 (centres undefined),inactive
3,O=C(Nc1cccc(C(F)(F)F)c1)c1nc2c(o1)CCN(Cc1nccs1)CC2,active: 15.8 µM
4,Cn1cnc(S(=O)(=O)N2CCC3(CC2)CC(CC(=O)N2CCOCC2)CCO3)c1 (centres undefined),inactive
5,CC(C)c1noc(C2Cc3ccccc3N2C(=O)Nc2ccc3c(c2)OCCO3)n1 (centres undefined),active: 15.8 µM
6,O=C(CC1CCCN(c2cnn(CC3CC3)c(=O)c2)C1)NCc1ccc(F)cc1 (centres undefined),inactive
7,N#Cc1cccc(-c2cn3c(n2)N(C(=O)c2cccc(F)c2)CCC3)c1,"inconclusive: 39.8 µM [inhibitor, partial curve]"
8,COc1ccc(-c2nnc(C[C@@H]3C[C@@H](C(C)C)[C@H](CN4CCN(C)CC4)C=C3C)o2)cc1,inactive
9,CCn1cc(-c2ccc(C)cc2)cc1C(=O)O,"inconclusive: 56.2 µM [inhibitor, partial curve]"
10,CCOC(=O)C1(Cc2cccc(Cl)c2)CCCN(C(=O)c2csc(C(C)=O)c2)C1 (centres undefined),"inconclusive: 50.1 µM [inhibitor, partial curve]"
11,CCOc1c(OC)cccc1-c1nc2ccc(-c3ccc(OC)c(OC)c3OC)cc2o1,"inconclusive: 25.1 µM [inhibitor, partial curve, poor fit]"
12,COc1ccc(CN2CCOc3nc(-c4cc5ccccc5o4)ncc3C2=O)cc1,active: 3.55 µM
13,CCOCCOC1CCN(C(=O)c2ccccc2)CC1,inactive
14,CCN1c2cc(C(=O)Nc3ccc(OC)c(OC)c3)ccc2C(=O)N2CCCC21 (centres undefined),"inconclusive: 35.5 µM [inhibitor, partial curve, poor fit]"
15,Cc1ccc(C2Cn3nnc(C(=O)N4CCC(C(=O)NCc5ccco5)CC4)c3CO2)cc1 (centres undefined),active: 31.6 µM
16,Cc1csc(NC(=O)c2ccc3c(c2)OCCN(CCC(F)(F)F)C3)n1,"inconclusive: 63.1 µM [inhibitor, partial curve]"
17,O=C(NCc1cc(F)cc(F)c1)C1CCN(C(=O)c2ncn3c2COC(c2ccc(F)cc2)C3)CC1 (centres undefined),"inconclusive: 44.7 µM [inhibitor, partial curve]"
18,O=C(c1ccccc1F)N1CCC[C@H]1c1nc(-c2ccccc2)no1,inactive
19,O=C(CCCc1ccccc1)N1CCC2(CC1)CN(C1CCC1)CC2CO (centres undefined),"inconclusive: 44.7 µM [inhibitor, partial curve]"
20,CC1=C[C@@H](CNC2CCOCC2)[C@H](C(C)C)C[C@H]1Cc1nc2ccccc2[nH]1,inactive
21,CCCN(C)c1nccnc1OC1CCN(C(=O)c2cccc(OC)c2OC)C1 (centres undefined),active: 31.6 µM
22,CC(C)c1noc(-c2cccn3c(CNC(=O)Cc4ccccc4Cl)nnc23)n1,inactive
23,CCCC(=O)N1CCCC(c2noc(COc3ccccc3)n2)C1 (centres undefined),"inconclusive: 44.7 µM [inhibitor, partial curve]"

row,SMILES,Potency
1,O=C(c1csc2nc(-c3ccc(C(F)(F)F)cc3)cn12)N1CCN2CCCC2C1 (centres undefined),"inconclusive: 63.1 µM [inhibitor, partial curve, poor fit]"
2,COc1cccc(CN2CCNc3cc(Nc4cccnc4)ncc3C2)c1,active: 11.2 µM
3,O=C1N[C@H](CC(=O)N2CCc3ccccc3C2)C(=O)Nc2ccccc21,"inconclusive: 44.7 µM [inhibitor, partial curve]"
4,O=C(O)c1cccc2c1CCN2C(=O)c1ccc(F)cc1,active: 1.26 µM
5,Nc1ncc(-c2ccc(-c3cc(NC4CCCC4)nc4[nH]ccc34)cc2)[nH]1,"inconclusive: 56.2 µM [inhibitor, partial curve, poor fit]"
6,CCCN1C(=O)CCc2cc(NC(=O)c3ccc(C)cc3)ccc21,active: 31.6 µM
7,N#Cc1ccccc1S(=O)(=O)N[C@H]1CO[C@H]2[C@@H]1OC[C@H]2OC(=O)Nc1ccc(Oc2ccccc2)cc1,active: 39.8 µM
8,COc1ccc(-c2ccc3c(n2)CN(C)C(=O)CO3)cc1,"inconclusive: 89.1 µM [inhibitor, partial curve]"
9,O=C(C1CCCCCC1)N1CCC(n2cc(C3CCCCC3)nn2)CC1,inactive
10,OCc1ccc(CN2Cc3[nH]cnc3C[C@H]2c2nc(-c3ccc4ccccc4c3)no2)o1,"inconclusive: 50.1 µM [inhibitor, full curve]"
11,O=C1CC2(CCN(CC3CC3)CC2)Oc2ccccc21,active: 7.94 µM
12,Cc1ccc(C(=O)N2CCCC(n3cc(-c4nc(-c5ccccc5)no4)nn3)C2)s1 (centres undefined),"inconclusive: 20 µM [inhibitor, full curve]"
13,CN(C)c1ccc(-c2cc(-c3ccc(=O)[nH]c3)c3cncn3c2)cc1,"inconclusive: 112 µM [inhibitor, single point]"
14,CCOc1cc(=O)n2c(c1C(=O)Nc1ccc(CC)cc1)CCCC2,"inconclusive: 44.7 µM [inhibitor, partial curve, poor fit]"
15,COc1ccc(-c2noc([C@@H]3CCCN3C3CCCCC3)n2)cn1,inactive
16,O=C(O)CCn1ncc2cc(OCC3CCN(C(=O)C4CCCC4)CC3)ccc21,"inconclusive: 70.8 µM [inhibitor, partial curve]"
17,O=C1Nc2ccc(/C=C/c3ccccc3)cc2C(=O)N2C[C@H](O)C[C@@H]12,"inconclusive: 39.8 µM [inhibitor, partial curve]"
18,COc1ccc(-c2cc3c(=O)n(CCNC(=O)c4ccccc4C)ccn3n2)cc1,active: 10 µM
19,COc1ccc(Nc2nc(-c3cccc(OC)c3OC)no2)cc1,active: 22.4 µM
20,CC(C)NS(=O)(=O)c1ccc2c(c1)nc(-c1ccc(-c3ccn[nH]3)o1)n2C(C)C,inactive
21,O=C(NC1CCCN(c2cc(-c3ccccc3)[nH]n2)C1)c1ccccc1Cl (centres undefined),"inconclusive: 50.1 µM [inhibitor, partial curve]"
22,CN(C)c1cccc(C(=O)Nc2cccc(-c3nnc4n3CCCC4)c2)c1,"inconclusive: 50.1 µM [inhibitor, partial curve]"
23,CCCn1cc(CNC(=O)c2cn(CCN)nn2)cn1,"inconclusive: 44.7 µM [inhibitor, partial curve]"
